Experimental data as given in the supplement of paper PMC4967469.
By IC50 is meant the dose at which the fit gives 50% viability; fits outside the tested doses are given as limits. AUC, from the same fit, is the share of area under the viability curve across the 256-fold dose range; the more sensitive the line, the further below 1. For part of these data: An inferred top dose comes from the curve model; the source does not state it. For part of these data: Where an entry number is given, a second screen of the drug exists; the two often differ.

Tests used:
Experiment in all cases: Viability of human cancer cell lines after 72 h of drug (GDSC screen)
QS11 = compound: OC[C@H](Cc1ccccc1)Nc1nc(Oc2ccc3c(c2)CCC3)nc2c1ncn2Cc1ccc(-c2ccccc2)cc1 [QS11]; conditions: top dose 10.24 µM
Protocol: (§1)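 Human cancer cell lines in 384-well plates, medium with 10% serum, drug for 72 h over a 256-fold dose range (nine 2-fold or five 4-fold steps up to the top dose). Adherent lines were fixed and stained with the nucleic acid dye Syto60, suspension lines read with resazurin; signal relative to control wells, capped at 0 and 100%. One two-parameter sigmoid per drug and line, fitted in a mixed model over all curves with the slope shared within a line.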

JNK-9L = compound: Fc1cc(-c2ccnc(Nc3ccc(-n4cnc(N5CCOCC5)n4)cc3)n2)cc(N2CCOCC2)c1 [JNK-9L]; conditions: top dose 5.12 µM; top dose inferred
Protocol: as §1

OSU-03012 = compound: NCC(=O)Nc1ccc(-n2nc(C(F)(F)F)cc2-c2ccc3c(ccc4ccccc43)c2)cc1 [OSU-03012]; conditions: top dose 16 µM; top dose inferred
Protocol: as §1

AC220 = compound: CC(C)(C)c1cc(NC(=O)Nc2ccc(-c3cn4c(n3)sc3cc(OCCN5CCOCC5)ccc34)cc2)no1 [AC220]; conditions: top dose 1.024 µM; top dose inferred
Protocol: as §1

RDEA119 = compound: COc1cc(F)c(F)c(Nc2ccc(I)cc2F)c1NS(=O)(=O)C1(C[C@H](O)CO)CC1 [RDEA119]; conditions: top dose 5 µM, top dose inferred
Protocol: as §1

CUDC-101 = compound: C#Cc1cccc(Nc2ncnc3cc(OC)c(OCCCCCCC(=O)NO)cc23)c1 [CUDC-101]; conditions: top dose 5.12 µM; top dose inferred
Protocol: as §1

Cell Line	AUC (QS11)	IC50 (QS11)	AUC (JNK-9L)	IC50 (JNK-9L)	AUC (OSU-03012)	IC50 (OSU-03012)	AUC (AC220)	IC50 (AC220)	AUC (RDEA119; screen: GDSC drug entry 1014)	IC50 (RDEA119; screen: GDSC drug entry 1014)	AUC (RDEA119; screen: GDSC drug entry 1526)	IC50 (RDEA119; screen: GDSC drug entry 1526)	AUC (CUDC-101)	IC50 (CUDC-101)
HeLa (cervix, adherent)	0.879	9.65 µM	0.549	0.432 µM	0.655	2.63 µM	0.983	> 1.02 µM	0.966	> 5 µM	0.867	4.17 µM		
PC-14 (lung adenocarcinoma, adherent)	0.975	> 10.2 µM	0.634	0.717 µM	0.748	4.68 µM	0.989	> 1.02 µM	0.867	3.7 µM	0.907	> 5 µM	0.39	0.165 µM
A2780 (ovary, semi-adherent)	0.864	9.52 µM	0.569	0.496 µM	0.683	3.31 µM	0.962	> 1.02 µM	0.932	> 5 µM	0.888	> 5 µM	0.517	0.357 µM
M14 (melanoma, adherent)	0.978	> 10.2 µM	0.541	0.417 µM	0.777	6.82 µM	0.987	> 1.02 µM			0.312	0.0897 µM	0.677	1.03 µM
BB30-HNC (head and neck, adherent)	0.75	3.28 µM	0.31	0.095 µM	0.59	1.76 µM	0.984	> 1.02 µM	0.604	0.598 µM			0.521	0.364 µM
EKVX (lung adenocarcinoma, adherent)	0.857	> 10.2 µM	0.797	> 5.12 µM	0.857	> 16 µM	0.968	> 1.02 µM	0.751	3.98 µM	0.742	3.56 µM	0.779	> 5.12 µM
NCI-H2087 (lung adenocarcinoma, semi-adherent)	0.942	> 10.2 µM	0.505	0.331 µM	0.729	4.76 µM	0.985	> 1.02 µM	0.756	1.82 µM	0.744	1.67 µM	0.621	0.706 µM
NCI-H1417 (small cell lung carcinoma, suspension)	0.866	> 10.2 µM	0.871	> 5.12 µM	0.818	11.4 µM	0.959	> 1.02 µM	0.75	1.91 µM	0.527	0.377 µM	0.491	0.302 µM
NCI-H441 (lung adenocarcinoma, adherent)	0.909	> 10.2 µM	0.816	4.49 µM	0.797	11.4 µM	0.978	> 1.02 µM			0.71	1.58 µM	0.809	4.14 µM
MDA-MB-175-VII (breast, adherent)	0.985	> 10.2 µM	0.732	1.59 µM	0.927	> 16 µM	0.919	> 1.02 µM			0.952	> 5 µM	0.605	0.641 µM
EPLC-272H (lung squamous cell carcinoma, adherent)	0.93	> 10.2 µM	0.627	0.752 µM	0.774	7.12 µM	0.981	> 1.02 µM			0.739	1.67 µM	0.396	0.16 µM
HCC1500 (breast, adherent)	0.987	> 10.2 µM	0.717	1.35 µM	0.783	7.02 µM	0.977	> 1.02 µM	0.921	> 5 µM	0.949	> 5 µM	0.583	0.545 µM
DU-145 (prostate, adherent)	0.805	5.87 µM	0.494	0.307 µM	0.631	2.4 µM	0.985	> 1.02 µM	0.662	0.93 µM	0.753	1.85 µM	0.542	0.422 µM
201T (lung adenocarcinoma, adherent)	0.815	7.54 µM	0.522	0.372 µM	0.568	1.61 µM	0.924	> 1.02 µM	0.869	> 5 µM			0.789	2.93 µM
MCF7 (breast, adherent)	0.752	3.52 µM	0.497	0.315 µM	0.526	1.18 µM			0.977	> 5 µM	0.978	> 5 µM	0.911	> 5.12 µM
SNU-C2B (large intestine, adherent)	0.941	> 10.2 µM	0.613	0.725 µM	0.701	4.46 µM	0.979	> 1.02 µM	0.832	4.73 µM	0.88	> 5 µM	0.499	0.318 µM
NCI-H322M (lung adenocarcinoma, suspension)	0.982	> 10.2 µM	0.965	> 5.12 µM	0.985	> 16 µM	0.971	> 1.02 µM	0.92	> 5 µM	0.948	> 5 µM	0.546	0.439 µM
SK-MEL-28 (melanoma, adherent)	0.984	> 10.2 µM	0.976	> 5.12 µM	0.922	> 16 µM	0.982	> 1.02 µM	0.389	0.155 µM	0.394	0.161 µM	0.688	1.06 µM
LoVo (large intestine, adherent)	0.763	3.74 µM	0.529	0.384 µM	0.454	0.748 µM	0.987	> 1.02 µM	0.496	0.305 µM	0.737	1.5 µM	0.786	2.24 µM
MDA-MB-231 (breast, adherent)	0.929	> 10.2 µM	0.681	1.06 µM	0.675	3.19 µM	0.986	> 1.02 µM	0.698	1.17 µM	0.774	2.08 µM	0.635	0.773 µM
